# Source: patent US20240101687A1 (ABL BIO, published 2024)
# B1: Hu11F11(ver.2)-1564 bivalent (bispecific antibody, human IgG1, kappa)
# heavy: EVQLVESGGGLVQPGGSLRLSCATSGFTFSDFYMEWVRQPPGKRLEWIAASRNKANDYTTEYSASVKGRFTVSRDDSKSSLYLQMNSLRAEDTAIYYCARDAHGKPFAYWGQGTTVTVSS[human IgG1 constant region not written out]GGGGSGGGGSGGGGSQSVLTQPPSASGTPGQRVTISCTGSSSNIGSNDVSWYQQLPGTAPKLLIYANSNRPSGVPDRFSGSKSGTSASLAISGLRSEDEADYYCGAWDDSLNGYVFGCGTKLTVLGGGGSGGGGSGGGGSGGGGSEVQLLESGGGLVQPGGSLRLSCAASGFTFSSYDMSWVRQAPGKCLEWVSAISYDNGNTYYADSVKGRFTISRDNSKNTLYLQMNSLRAEDTAVYYCAKGVLTTLMNWFDYWGQGTLVTVSS
# light: DIVMTQSPSSLAVSLGERVTMS[about 80 residues not written out][about 120 residues not written out]
# B2: Hu11F11(ver.2)-F06 (bispecific antibody)
# heavy: EVQLVESGGGLVQPGGSLRLSCATSGFTFSDFYMEWVRQPPGKRLEWIAASRNKANDYTTEYSASVKGRFTVSRDDSKSSLYLQMNSLRAEDTAIYYCARDAHGKPFAYWGQGTTVTVSS[human IgG1 constant region not written out]GGGGSGGGGSGGGGSQSVLTQPPSASGTPGQRVTISCTGSSSNIGSNDVSWYQQLPGTAPKLLIYANSNRPSGVPDRFSGSKSGTSASLAISGLRSEDEADYYCGTWAGSLNGYVFGCGTKLTVLGGGGSGGGGSGGGGSGGGGSEVQLLESGGGLVQPGGSLRLSCAASGFTFSSYDMSWVRQAPGKCLEWVSAISYDNGNTYYADSVKGRFTISRDNSKNTLYLQMNSLRAEDTAVYYCAKGVLTTLMNWFDYWGQGTLVTVSS
# light: DIVMTQSPSSLAVSLGERVTMS[about 80 residues not written out][about 120 residues not written out]
# B3: Hu11F11(ver.2)-VH2 bivalent (bispecific antibody, human IgG1, kappa)
# heavy: EVQLVESGGGLVQPGGSLRLSCATSGFTFSDFYMEWVRQPPGKRLEWIAASRNKANDYTTEYSASVKGRFTVSRDDSKSSLYLQMNSLRAEDTAIYYCARDAHGKPFAYWGQGTTVTVSS[human IgG1 constant region not written out]GGGGSGGGGSGGGGSQSVLTQPPSASGTPGQRVTISCTGSSSNIGSNDVSWYQQLPGTAPKLLIYANSNRPSGVPDRFSGSKSGTSASLAISGLRSEDEADYYCGAWDDSLNGYVFGCGTKLTVLGGGGSGGGGSGGGGSGGGGSEVQLLESGGGLVQPGGSLRLSCAASGFTFSSYAMSWVRQAPGKCLEWVSAISGSNGNTYYADSVKGRFTISRDNSKNTLYLQMNSLRAEDTAVYYCAKGVLTTLANWFDYWGQGTLVTVSS
# light: DIVMTQSPSSLAVSLGERVTMS[about 80 residues not written out][about 120 residues not written out]
# B4: Hu11F11(ver.2)-VH5 bivalent (bispecific antibody, human IgG1, kappa)
# heavy: EVQLVESGGGLVQPGGSLRLSCATSGFTFSDFYMEWVRQPPGKRLEWIAASRNKANDYTTEYSASVKGRFTVSRDDSKSSLYLQMNSLRAEDTAIYYCARDAHGKPFAYWGQGTTVTVSS[human IgG1 constant region not written out]GGGGSGGGGSGGGGSQSVLTQPPSASGTPGQRVTISCTGSSSNIGSNDVSWYQQLPGTAPKLLIYANSNRPSGVPDRFSGSKSGTSASLAISGLRSEDEADYYCGAWDDSLNGYVFGCGTKLTVLGGGGSGGGGSGGGGSGGGGSEVQLLESGGGLVQPGGSLRLSCAASGFTFSSYDMSWVRQAPGKCLEWVSAISGDNGSTYYADSVKGRFTISRDNSKNTLYLQMNSLRAEDTAVYYCAKGVLTTLMNWFDSWGQGTLVTVSS
# light: DIVMTQSPSSLAVSLGERVTMS[about 80 residues not written out][about 120 residues not written out]
# B5: Hu11F11(ver.2)-VH7 bivalent (bispecific antibody, human IgG1, kappa)
# heavy: EVQLVESGGGLVQPGGSLRLSCATSGFTFSDFYMEWVRQPPGKRLEWIAASRNKANDYTTEYSASVKGRFTVSRDDSKSSLYLQMNSLRAEDTAIYYCARDAHGKPFAYWGQGTTVTVSS[human IgG1 constant region not written out]GGGGSGGGGSGGGGSQSVLTQPPSASGTPGQRVTISCTGSSSNIGSNDVSWYQQLPGTAPKLLIYANSNRPSGVPDRFSGSKSGTSASLAISGLRSEDEADYYCGAWDDSLNGYVFGCGTKLTVLGGGGSGGGGSGGGGSGGGGSEVQLLESGGGLVQPGGSLRLSCAASGFTFSSYAMSWVRQAPGKCLEWVSAISYDNGSTYYADSVKGRFTISRDNSKNTLYLQMNSLRAEDTAVYYCAKGVLTTLMNWFDYWGQGTLVTVSS
# light: DIVMTQSPSSLAVSLGERVTMS[about 80 residues not written out][about 120 residues not written out]
# B6: Hu11F11(ver.2)-VH9 bivalent (bispecific antibody, human IgG1, kappa)
# heavy: EVQLVESGGGLVQPGGSLRLSCATSGFTFSDFYMEWVRQPPGKRLEWIAASRNKANDYTTEYSASVKGRFTVSRDDSKSSLYLQMNSLRAEDTAIYYCARDAHGKPFAYWGQGTTVTVSS[human IgG1 constant region not written out]GGGGSGGGGSGGGGSQSVLTQPPSASGTPGQRVTISCTGSSSNIGSNDVSWYQQLPGTAPKLLIYANSNRPSGVPDRFSGSKSGTSASLAISGLRSEDEADYYCGAWDDSLNGYVFGCGTKLTVLGGGGSGGGGSGGGGSGGGGSEVQLLESGGGLVQPGGSLRLSCAASGFTFSSYDMSWVRQAPGKCLEWVSAISGDNGNTYYADSVKGRFTISRDNSKNTLYLQMNSLRAEDTAVYYCAKGVLTTLMNWFDYWGQGTLVTVSS
# light: DIVMTQSPSSLAVSLGERVTMS[about 80 residues not written out][about 120 residues not written out]
# B7: Hu11F11(ver.2)-VH16 bivalent (bispecific antibody, human IgG1, kappa)
# heavy: EVQLVESGGGLVQPGGSLRLSCATSGFTFSDFYMEWVRQPPGKRLEWIAASRNKANDYTTEYSASVKGRFTVSRDDSKSSLYLQMNSLRAEDTAIYYCARDAHGKPFAYWGQGTTVTVSS[human IgG1 constant region not written out]GGGGSGGGGSGGGGSQSVLTQPPSASGTPGQRVTISCTGSSSNIGSNDVSWYQQLPGTAPKLLIYANSNRPSGVPDRFSGSKSGTSASLAISGLRSEDEADYYCGAWDDSLNGYVFGCGTKLTVLGGGGSGGGGSGGGGSGGGGSEVQLLESGGGLVQPGGSLRLSCAASGFTFSSYDMSWVRQAPGKCLEWVSAISGSNGNTYYADSVKGRFTISRDNSKNTLYLQMNSLRAEDTAVYYCAKGVLTTLMNWFDYWGQGTLVTVSS
# light: DIVMTQSPSSLAVSLGERVTMS[about 80 residues not written out][about 120 residues not written out]
# B8: Hu11F11(ver.2)-VH32 bivalent (bispecific antibody, human IgG1, kappa)
# heavy: EVQLVESGGGLVQPGGSLRLSCATSGFTFSDFYMEWVRQPPGKRLEWIAASRNKANDYTTEYSASVKGRFTVSRDDSKSSLYLQMNSLRAEDTAIYYCARDAHGKPFAYWGQGTTVTVSS[human IgG1 constant region not written out]GGGGSGGGGSGGGGSQSVLTQPPSASGTPGQRVTISCTGSSSNIGSNDVSWYQQLPGTAPKLLIYANSNRPSGVPDRFSGSKSGTSASLAISGLRSEDEADYYCGAWDDSLNGYVFGCGTKLTVLGGGGSGGGGSGGGGSGGGGSEVQLLESGGGLVQPGGSLRLSCAASGFTFSSYAMSWVRQAPGKCLEWVSAISYDNGNTYYADSVKGRFTISRDNSKNTLYLQMNSLRAEDTAVYYCAKGVLTTLANWFDYWGQGTLVTVSS
# light: DIVMTQSPSSLAVSLGERVTMS[about 80 residues not written out][about 120 residues not written out]
# B9: Hu11F11(ver.2)-VH35 bivalent (bispecific antibody, human IgG1, kappa)
# heavy: EVQLVESGGGLVQPGGSLRLSCATSGFTFSDFYMEWVRQPPGKRLEWIAASRNKANDYTTEYSASVKGRFTVSRDDSKSSLYLQMNSLRAEDTAIYYCARDAHGKPFAYWGQGTTVTVSS[human IgG1 constant region not written out]GGGGSGGGGSGGGGSQSVLTQPPSASGTPGQRVTISCTGSSSNIGSNDVSWYQQLPGTAPKLLIYANSNRPSGVPDRFSGSKSGTSASLAISGLRSEDEADYYCGAWDDSLNGYVFGCGTKLTVLGGGGSGGGGSGGGGSGGGGSEVQLLESGGGLVQPGGSLRLSCAASGFTFSSYDMSWVRQAPGKCLEWVSAISYDNGSTYYADSVKGRFTISRDNSKNTLYLQMNSLRAEDTAVYYCAKGVLTTLMNWFDSWGQGTLVTVSS
# light: DIVMTQSPSSLAVSLGERVTMS[about 80 residues not written out][about 120 residues not written out]
# B10: hu11F11-1564(ver.3) (bispecific antibody)
# heavy: EVQLVESGGGLVQPGGSLRLSCATSGFTFSDFYMEWVRQPPGKRLEWIAASRNKANDYTTEYSASVKGRFTISRDTSKSSLYLQMNSLRAEDTAIYYCARDAHGKPFAYWGQGTTVTVSS[human IgG1 constant region not written out]GGGGSGGGGSGGGGSQSVLTQPPSASGTPGQRVTISCTGSSSNIGSNDVSWYQQLPGTAPKLLIYANSNRPSGVSDRFSGSKSGTSASLAISGLRSEDEADYYCGAWDDSLNGYVFGCGTKLTVLGGGGSGGGGSGGGGSGGGGSEVQLLESGGGLVQPGGSLRLSCAASGFTFSSYDMSWVRQAPGKCLEWVSAISYDNGNTYYADSVKGRFTISRDNSKNTLYLQMNSLRAEDTAVYYCAKGVLTTLMNWFDYWGQGTLVTVSS
# light: DIVMTQSPSSLAVSLGERVTMS[about 80 residues not written out][about 120 residues not written out]
# What was measured:
# [1] = target: T1, human IGF1R extracellular domain, His-tagged (human, UniProt P08069 31-932); test: ELISA on coated IGF1R, antibody titrated up to 400 nM; C of the 4-P fit
# T1 construct: Bought (R&D Systems 391-GR or Sino Biological 10164-H08H); also called recombinant IGF1R; ECD of IGF1R
# [2] = target: human alpha-synuclein aggregates (fibrils) (human, UniProt P37840); test: ELISA, alpha-synuclein aggregates coated, antibody titrated up to 400 nM; C of the 4-P fit
# [3] = target: T2, human IGF1R on cells (human, UniProt P08069 31-1367); test: FACS on MCF-7 cells, 10 ug/mL (2nd Ab only: 2.86)
# T2 construct: also called endogenous IGF1R on the cell surface (MCF-7, JIMT-1, BT474, SKBR3); IGF1R library on OVCAR3 cells
# [4] = target: T1, human IGF1R extracellular domain, …; test: ELISA on ECD of IGF1R
Binder,EC50 [1] [nM],EC50 [2] [nM],"GeoMean, Internalization at 37° C. [3]",EC50 [4] [nM]
B1,0.649,4.27,7.34,–
B2,–,–,–,0.147
B3,–,–,3.19,135
B4,–,–,6.1,0.366
B5,–,–,3.84,402
B6,–,–,5.01,6.06
B7,–,–,5.83,0.236
B8,–,–,3.24,121
B9,–,–,7.28,0.167
B10,–,0.874,–,–
